In paper PMC3217859 one finds binding data, which are given here for one molecule.

The chains behind the UniProt entries cited, without tags or fusion partners. Where a name states a change or a piece, a line headed by the entry shows the natural chain unless it says otherwise. A line that says so, or that is headed by a name, gives the form on record, which may keep a tag or linker. Residues count along the entry.
HA-tagged striatin with deletion of residues 191-269 (O43815, form named): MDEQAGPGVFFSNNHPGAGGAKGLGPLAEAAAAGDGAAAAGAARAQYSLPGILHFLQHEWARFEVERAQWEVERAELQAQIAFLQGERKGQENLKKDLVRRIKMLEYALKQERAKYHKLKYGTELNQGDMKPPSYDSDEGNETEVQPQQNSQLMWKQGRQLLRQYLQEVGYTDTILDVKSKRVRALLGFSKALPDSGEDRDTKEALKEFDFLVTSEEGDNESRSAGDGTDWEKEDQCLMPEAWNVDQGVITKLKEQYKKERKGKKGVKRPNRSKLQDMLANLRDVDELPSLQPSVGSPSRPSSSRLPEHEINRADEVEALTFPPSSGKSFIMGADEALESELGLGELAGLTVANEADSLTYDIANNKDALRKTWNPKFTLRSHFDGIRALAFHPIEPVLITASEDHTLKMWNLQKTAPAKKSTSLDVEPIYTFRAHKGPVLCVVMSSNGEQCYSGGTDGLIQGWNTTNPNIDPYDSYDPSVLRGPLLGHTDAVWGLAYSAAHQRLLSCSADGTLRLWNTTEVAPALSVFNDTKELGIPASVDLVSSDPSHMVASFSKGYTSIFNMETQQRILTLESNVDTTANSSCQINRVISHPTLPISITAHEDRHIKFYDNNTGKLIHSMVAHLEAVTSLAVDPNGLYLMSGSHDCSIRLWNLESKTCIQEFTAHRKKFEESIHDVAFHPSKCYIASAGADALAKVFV
HA-tagged Δ(270-344) striatin (O43815, form named): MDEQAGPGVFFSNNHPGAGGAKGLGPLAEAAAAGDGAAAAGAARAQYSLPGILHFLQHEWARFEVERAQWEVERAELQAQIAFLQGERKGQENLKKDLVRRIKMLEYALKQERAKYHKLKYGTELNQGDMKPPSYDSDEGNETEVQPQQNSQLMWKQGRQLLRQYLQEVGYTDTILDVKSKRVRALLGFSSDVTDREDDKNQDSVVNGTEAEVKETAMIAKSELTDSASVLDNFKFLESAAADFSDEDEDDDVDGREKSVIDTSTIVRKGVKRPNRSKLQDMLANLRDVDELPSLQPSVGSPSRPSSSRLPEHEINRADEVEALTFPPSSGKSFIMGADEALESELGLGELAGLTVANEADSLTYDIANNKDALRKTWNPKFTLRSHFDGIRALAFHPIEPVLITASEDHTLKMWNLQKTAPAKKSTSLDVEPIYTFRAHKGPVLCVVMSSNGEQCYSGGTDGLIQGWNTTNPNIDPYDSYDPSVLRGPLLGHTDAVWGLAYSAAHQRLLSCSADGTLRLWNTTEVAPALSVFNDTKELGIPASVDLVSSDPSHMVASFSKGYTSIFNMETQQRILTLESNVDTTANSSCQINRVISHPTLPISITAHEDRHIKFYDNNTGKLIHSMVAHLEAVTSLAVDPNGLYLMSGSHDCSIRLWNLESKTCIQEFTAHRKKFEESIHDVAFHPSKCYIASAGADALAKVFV

No constants are given. Whether binding was seen depends on the method and setting. Binding seen in cells or lysates may run through a third protein. Some entries that bind do so weakly or less than the wild type.

Test [1] addresses HA-tagged striatin with deletion of residues 191-269 (human) (UniProt O43815). In words: co-IP; anti-HA immunoprecipitates (12CA5 with protein A-Sepharose, or F7 anti-HA-agarose when probing for Mst3 or Mst4; 1.5 h, 4°C) of lysates (1% Nonidet P-40, 0.135 M NaCl, 10% glycerol, 20 mM Tris pH 8.0) of HEK293 cells transfected with HA-striatins; endogenous partners by immunoblot, partner/HA-striatin ratio by chemilumimager against wild type; 50 mM NaF and 100 nM okadaic acid in the lysis buffer in the phosphorylation experiments. On the technique in general: A western blot detects proteins with antibodies after separation by electrophoresis.

Test [2] concerns the target HA-tagged Δ(270-344) striatin (human) (UniProt O43815). The test is described as above.

B1: Mob3/phocein (protein, UniProt Q9Y3A3 1-225)
chain: MVMAEGTAVLRRNRPGTKAQDFYNWPDESFDEMDSTLAVQQYIQQNIRADCSNIDKILEPPEGQDEGVWKYEHLRQFCLELNGLAVKLQSECHPDTCTQMTATEQWIFLCAAHKTPKECPAIDYTRHTLDGAACLLNSNKYFPSRVSIKESSVAKLGSVCRRIYRIFSHAYFHHRQIFDEYENETFLCHRFTKFVMKYNLMSKDNLIVPILEEEVQNSVSGESEA
Consider B1, for which the binding result in test [1] and in test [2] was “binds” throughout.
